Out of some 410,000 compounds screened, about 260 (0.063%) were called active. This list was built around the results that the source calls inconclusive (neither active nor inactive); the mix of calls is not that of the screen. Calls come from the whole dose curve; as a rule, active = well fitted activation curve with a large enough effect; inconclusive = small, poorly fitted or top-dose-only effect; inactive = no such curve, though single readings can be large or run the other way. No potency is given beside an inconclusive call; the fits are too rough.
test: qHTS for compounds that reverse cellular toxicity of Amyloid beta (A-beta) peptide in yeast: Primary Screen; conditions: yeast expressing A-beta42, growth rescue, OD600, 48 h; growth rescue: at 46.1 µM (top of the series), 0% DMSO, 100% iron-clioquinol control; note: nearly all actives have a fitted effect of over 55% in size
How it was run: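 Growth rescue measured by 600 nm absorbance after 48 h yeast culture at 30 C with compound. Values normalized between DMSO and an equimolar ferric chloride plus clioquinol control.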
Potency is the fitted concentration of half-maximal effect; tags give direction and shape of the fitted curve.

| SMILES | Potency |
| --- | --- |
| Cc1cc2nc(C(C)(C)C)c(Cc3ccccc3)n2c(C)c1Br | inconclusive [activator, single point] |
| Cc1ccccc1C(=O)OCn1nnc2ccccc2c1=O | inactive |
| CCOc1ccc(-n2cc(-c3ccccc3)c3c(=S)nc[nH]c32)cc1 | inconclusive [activator, single point] |
| CC(=O)c1cccc(NC(=O)CSc2nc3c(=O)n(C)c(=O)n(C)c3n2C)c1 | inactive |
| Cc1cccc(-n2cnc3cc(C(=O)NC4CCCCCC4)ccc32)c1 | inactive |
| CC(=O)[C@H]1CC[C@H]2[C@@H]3CCC4=CC(=O)CC[C@]4(C)[C@H]3CC[C@]12C | inactive |
| Cc1ccc(CCNC(=O)c2cc3c(=O)n(C)c4ccccc4c3n2C)cc1 | inactive |
| COc1cccc(CNc2ccccc2O)c1OCc1ccccc1F | inactive |
| CCCc1ccc(OCCNC(=O)c2ccccc2Br)cc1 | inconclusive [activator, partial curve, poor fit] |
| CC(C)NC(=S)N/N=C/c1ccc(C(C)(C)C)cc1 | active: 5.62 µM |
| CCCCc1ccc(NC(=O)CSc2nnc3[nH]c(=O)cc(C)n23)cc1 | inactive |
| Cc1ccc(C2=NC3(CCCC3)NC2=S)cc1 | inconclusive [activator, partial curve, poor fit] |
| CCOC(=O)c1ccccc1NC(=O)c1nn(C)c2c1COc1ccccc1-2 | inactive |
| Cc1ccc2occ(CC(=O)N3CCN(c4cccc(Cl)c4)CC3)c2c1 | inconclusive [activator, single point] |
| O=C(COc1ccc(Cl)cc1Cl)N/N=C/c1ccccn1 | inconclusive [activator, partial curve, poor fit] |
| CCn1nnc2cc(C(=O)Nc3cccc(C)c3C)ccc21 | inactive |
| CCC1CCCCN1CC(=O)c1c(C)[nH]c2ccccc12 (stereo not drawn) | inconclusive [activator, single point] |
| CS(=O)(=O)Oc1ccccc1/C=C1/N=C(c2ccc(F)cc2)OC1=O | inactive |
| O=C(Nc1cccc(F)c1)[C@@H](c1ccccc1)N1Cc2ccccc2C1=O | inactive |
| Cn1c(Sc2ccc(Br)cc2)c(C=O)c2ccccc21 | inconclusive [activator, partial curve, poor fit] |
| Cc1ccc(OCC(=O)Nc2cc(-c3cccc(C)c3)nn2-c2ccccc2)cc1 | inactive |
| O=C(COC(=O)Cc1c[nH]c2ccccc12)Nc1cccc2ccccc12 | inconclusive [activator, partial curve] |
| Cc1cc(C)cc(Oc2coc3cc(O)ccc3c2=O)c1 | inconclusive [activator, partial curve, poor fit] |
